Binding signal data for 22 molecules are collected here from paper PMC12136788.

The list shows a part of the results.

B1: chr17:15229982:15230086:-|3pUTR|ENSG00000109099|msi1_unk|total|mutant (ssRNA)
RNA: GGGAGUUCUACAGUCCGACGAUCUCAUAAAGCCUUCAUCACUCCCACAUUUUUCUUACGGUCGGAGCAUCAGAACAAGCGUCCCGACUCCUUGGGACCGUGAGUUCCCCGAGCUUGGCUGGGUCCCGGCUGUUCUGUGCCUCCCAACAGAGGAUUGAGCAUCA
B2: chr20:3582170:3582271:+|CDS|ENSG00000088812|msi1|FALSE|bound_elsewhere (ssRNA)
RNA: GGGAGUUCUACAGUCCGACGAUCGGCCUUCGGAAGAUCAAUGUGUCCUACUGGUGCUGGGAAGAUAUGUCCCCAUUUACAAAUAGUUUACUACAGUGGAUGCCGUCUGAGCCCAGUGAUGCUGGAUUCUGUGGAAUUUUAUCACAACAGAGGAUUGAGCAUCA
B3: chr10:74118286:74118577:+|3pUTR|ENSG00000035403|msi1|FALSE|unique (ssRNA)
RNA: GGGAGUUCUACAGUCCGACGAUCGUAUUCUCAAACACAGUUACACUUGUGCACCCUCUAUCCCAAUAGGCAGACUGGGUUUCUAGCCCAUGGACUUCACAUAAGCUCAGAAUCCAAGUGAACACUAGCCAGACACUCUGCUCUCAACAGAGGAUUGAGCAUCA
B4: chr20:50583650:50583751:+|3pUTR|ENSG00000196396|msi1|total|mutant (ssRNA)
RNA: GGGAGUUCUACAGUCCGACGAUCUUCCUAAGCCUGUUGCUGAAGUCAUUGUCGCUCAGCAACCGGGUGCAGUUUUCCAGGAACCGGCAUUUGCCUAAUUCCUGGCAUGACACUCCCGUGACUUCCUGGUGAGGCCCAGCCUGUCAACAGAGGAUUGAGCAUCA
B5: chr9:86945015:86945116:-|3pUTR|ENSG00000180447|msi1|total|mutant (ssRNA)
RNA: GGGAGUUCUACAGUCCGACGAUCUUGGUUUUGGAUAAGUUUGAGCCCUUGACCUUAAUUUCAUUGCUACCACUCUGAUCUCUCCGCACAUUUCUCCGGAUUAAGGGUCCAAAAAUGCUGAUCUAAGGGGUUGCCAUGGUGUUGCAACAGAGGAUUGAGCAUCA
B6: chr1:32196422:32196614:+|3pUTR|ENSG00000084652|msi1|total|mutant (ssRNA)
RNA: GGGAGUUCUACAGUCCGACGAUCACAGUUGUUUCUGUGUCCUGUUCUACCCCCACUCCAGUACAUAACUACUAUGUACUGUGCCGAGCCAUUCUAUAUGCUGAAUGUUCUGCUGUUGCAAACUUGCCAGGGUAUCCGCCAGUGCAACAGAGGAUUGAGCAUCA
B7: chr18:33333173:33333394:-|CDS|ENSG00000166960|control|control|control (ssRNA)
RNA: GGGAGUUCUACAGUCCGACGAUCACAUUUUGAAAAACAAAAGACAGAGUUAGAAGAAGCAAAUGCAAAGAUUCAAGCAGACAUAGACUACAUGAAUGAACAUGGCCCUCUACUGGACUCUAAGCAGAAUCAGGAACUUCAAGACAACAGAGGAUUGAGCAUCA
B8: chrX:65741246:65741425:+|3pUTR|ENSG00000147065|msi1|FALSE|unique (ssRNA)
RNA: GGGAGUUCUACAGUCCGACGAUCUAUUAUGUACUCUACUGAUAUCUAAAUAUUGAUUUCUGCCUUCCUUGCUAAUGCACCAUUAGAAGAUAUUAGUCUUGGGGCAGGAUGAUUUUGGCCUCAUUACUUUACCACCCCCACACCCAACAGAGGAUUGAGCAUCA
B9: chr6:144094883:144095236:-|three_prime_utr|ENSG00000169976|control|control|control (ssRNA)
RNA: GGGAGUUCUACAGUCCGACGAUCUCCGCGUACAGAAGUGCUUGCCCGGGGAGUCCCGCCUGACCUGCCUUCAUGUGGACCCUUAGAACAGCACUGGGAGACCAGCAGGACUCCUGAGAACUGUGCUGGUGGAGAGGUCCUAGACAACAGAGGAUUGAGCAUCA
B10: chr16:74623592:74623693:-|3pUTR|ENSG00000168411|msi1|FALSE|unique (ssRNA)
RNA: GGGAGUUCUACAGUCCGACGAUCCCAUUAUUGUAUGUUGGAAAUUCUUAUUUUCUUUAUUUUCUGUGUGACUUUCUGGACCUUAGAGAGUGUCCUCUCAUCAUCUAGGAUGUGAGUGGGCAUCAAGCAUUUUCUGGGGAAUAUCAACAGAGGAUUGAGCAUCA
B11: chr16:366968:367674:-|three_prime_utr|ENSG00000086504|control|control|control (ssRNA)
RNA: GGGAGUUCUACAGUCCGACGAUCGACUCACUACAACCUCCACCUCCAGAGUUCAAGUGAUUGUCCUGUCUCAGCCUCCUGAGUAGCUGGGAUUACAGGCACCCCGCUAUCAUGUAUGGCUAAUUGUAUUUUAGUAGAGAAGGGCAACAGAGGAUUGAGCAUCA
B12: chr16:46956602:46956663:-|3pUTR|ENSG00000069345|msi1_unk|FALSE|overlapping (ssRNA)
RNA: GGGAGUUCUACAGUCCGACGAUCGUUUGUACAAUUUGUCCUGAAGCUUUGUGUUUGGCUGCACCUGCAUAAGCUGCUACAAAUAGAAUAAAGAAUUUCAUAGCCUGUAUCUAUCAUUUAGAUGCAUGGAAAAAAAUGGGCUUUCAACAGAGGAUUGAGCAUCA
B13: chr1:205715917:205716022:-|3pUTR|ENSG00000069275|msi1_unk|total|mutant (ssRNA)
RNA: GGGAGUUCUACAGUCCGACGAUCGAGACAGGCUCUGAAUAACCUUUGUUUUCUCCACUUUUUAUUGAUGAUUUAAAACACUCCCGUCUUCCCCUCAAAUCAUGCAUGCAAACCGGAGGACAGUGGUGGUGACUCAACUGGAUACAACAGAGGAUUGAGCAUCA
B14: chr15:71825291:71825392:-|3pUTR|ENSG00000066933|unk|total|mutant (ssRNA)
RNA: GGGAGUUCUACAGUCCGACGAUCUGAAGCUAUUUUUGUUAAUAUUCUGGUUACUGAAGUUUAUUGUAAAUAUGUAUGUACCGCCGGCAUAUUUCUUUUUAACCUUGUGCUUCCCUCCUUCCCAUGGAAUUUCUUCCCACAGAUCAACAGAGGAUUGAGCAUCA
B15: chr1:25360731:25360844:+|3pUTR|ENSG00000183726|unk|total|mutant (ssRNA)
RNA: GGGAGUUCUACAGUCCGACGAUCUUUUUUACUGCUCACUCCCAACCUUUUGUAAUGCCAUUUUCUAAACUUAUUUCUGAGUGCCGUCUCAGCUUAAAGUUGUGUAAUACUAAAAUCACGAGAACACCUAAACAACAACCAAAACAACAGAGGAUUGAGCAUCA
B16: chr11:130144177:130144243:+|3pUTR|ENSG00000084234|msi1_unk|FALSE|overlapping (ssRNA)
RNA: GGGAGUUCUACAGUCCGACGAUCAUGAGGGUGUCCGCUGCUGCUUUCCUUCGGAAUCCAGUGCUUCCACAGAGAUUAGCCUGUAGCUUAUAUUUGACAUUCUUCACUGUCUGUUGUUUACCUACCGUAGCUUUUUACCGUUCACAACAGAGGAUUGAGCAUCA
B17: chr1:110947961:110948399:-|CDS|ENSG00000121931|control|control|control (ssRNA)
RNA: GGGAGUUCUACAGUCCGACGAUCAAGUCAUUUCUUCAAUAAAAAUUAUACCGAAGAUAUUUUCCCAGUGACACCACCGGAGUUAGAAGAAACCAUUCGAGAUGAAAAAAUAAGAAGACUUAAGCAGGUGCUGAGAGAGAAAGACAACAGAGGAUUGAGCAUCA
B18: chr4:76160418:76160736:-|3pUTR|ENSG00000138760|msi1|total|mutant (ssRNA)
RNA: GGGAGUUCUACAGUCCGACGAUCAGUUCCUUCCUCAGUUUCAGUUCUUUCCAGUGUUUUGCCGCUCACUGUCACUCACUGAACCGAGAAACGUGUGCCCUAUACUUCCUGUGACAAUCAUUUUGCUGACAGAAUGAUGGAUGUCAACAGAGGAUUGAGCAUCA
B19: chr14:22920524:22921056:-|three_prime_utr|ENSG00000100462|control|control|control (ssRNA)
RNA: GGGAGUUCUACAGUCCGACGAUCCAGCACCAGUCUGUUCUGCUAUUCAUAACCCCACAGGCCGCUCAUAUACCAUUGGCCUCUAGCCCUGCGUGCCAAGUGUCCAGAGCCUUGGAAGCAGCUUCAGGUUCUGCUCCUGUAGUACAACAGAGGAUUGAGCAUCA
B20: chr9:35750248:35750349:+|CDS|ENSG00000107185|msi1|total|mutant (ssRNA)
RNA: GGGAGUUCUACAGUCCGACGAUCGGCCCUGGCCUGGGCCAGUGCCCAAAUCCACUGCCAGUUCCAUGCCAGUGAGAGUCGAGCCGCACUGCCUCCUCCUGACUCCCGUCAGCCAGAUGUCCAGCCCGACAGCCAGACUGUCUUCAACAGAGGAUUGAGCAUCA
B21: chr2:9584341:9584442:-|3pUTR|ENSG00000134308|msi1_unk|total|mutant (ssRNA)
RNA: GGGAGUUCUACAGUCCGACGAUCUUUCCAUGCAGAUUUGUGCACAUGUGAGAGGGUGUCCAGUUUGUCCCGUGAUUGUUAUUCCGAGAGUUGGACCACUAUUGUGUGUUGCUAAUCAUUGACUGCCGUCCCAAAAAAGCCUUGCAACAGAGGAUUGAGCAUCA
B22: chr11:78173774:78174554:-|CDS|ENSG00000188997|control|control|control (ssRNA)
RNA: GGGAGUUCUACAGUCCGACGAUCCGGGGGGAAGCUCUAUACAACCUCACUGGCGACCCUGACCAGCUUCCCUGACUCCAUGCUAGGCGCCAUGUUCAGCGGGAAGAUGCCCACCAAGAGGGACAGCCAGGGCAACUGCUUCAUCAACAGAGGAUUGAGCAUCA

The assay addresses T1, UNK ZnF1-6 (called full-length) (human, UniProt Q9C0B0 30-357).
T1 sequence: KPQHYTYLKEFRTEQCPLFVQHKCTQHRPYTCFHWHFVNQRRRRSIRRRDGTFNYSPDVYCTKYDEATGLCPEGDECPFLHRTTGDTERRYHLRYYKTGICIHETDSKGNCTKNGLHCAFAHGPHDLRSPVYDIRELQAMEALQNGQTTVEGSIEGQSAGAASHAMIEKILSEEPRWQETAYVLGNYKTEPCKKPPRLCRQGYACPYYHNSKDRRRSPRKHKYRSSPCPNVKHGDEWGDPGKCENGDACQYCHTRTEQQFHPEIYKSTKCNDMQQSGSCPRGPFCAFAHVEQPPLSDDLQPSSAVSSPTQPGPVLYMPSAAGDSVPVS
As to the kind of experiment: nsRBNS (natural sequence RNA bind-n-seq); RBNS binding buffer (assumed for nsRBNS): 25 mM Tris pH 7.5, 150 mM KCl, 3 mM MgCl2, 0.01% Triton X-100, 500 ug/ml BSA, 20 U/ml SUPERase-In, 4 C; UNK is unkempt and MSI1 is Musashi-1; names of the RNAs are library labels; protein concentration not given here; high values mean tight binding.
On to B1, for which the binding signal amounted to 0.662 enrichment R.
As to B2, the binding signal was determined as 0.689 enrichment R.
B3: the binding signal is 0.418 enrichment R.
B4 had a binding signal of 0.376 enrichment R.
With B5, the binding signal was found to be 0.575 enrichment R.
As to B6, the binding signal came to 0.555 enrichment R.
As to B7, the binding signal came to 0.467 enrichment R.
The molecule B8 had a binding signal of 1.06 enrichment R.
Then B9, with 0.735 enrichment R.
For the molecule B10, the binding signal is 0.572 enrichment R.
B11 gave a binding signal of 0.897 enrichment R.
In turn, B12 returned a binding signal of 1.25 enrichment R.
Under B13 stands 0.724 enrichment R.
Under B14 stands 0.473 enrichment R; under B15, 0.572 enrichment R.
Regarding B16, the binding signal stood at 1.56 enrichment R.
Then B17, with 0.797 enrichment R; and B18, with 0.368 enrichment R; and B19, with 0.677 enrichment R.
Then B20, with 0.76 enrichment R.
Turning to B21, the binding signal is 0.533 enrichment R.
The molecule B22 displayed a binding signal of 0.754 enrichment R.
